Results from PubChem BioAssay AID485344 (National Center for Advancing Translational Sciences (NCATS), 2010).
Among all 340,000 compounds or so, about 6,900 (2%) were called active. No stated cut-off is given here; in the data, active means inhibition above about 30%; inactive means below that, where a call was filed. The entries are a selection whose mix differs from that of the whole data set. Entries without a call were filed so in the source.

These molecules were tested against D(2) dopamine receptor (Homo sapiens) (UniProt P14416) (assay: HTS Assay for Allosteric Antagonists of the Human D2 Dopamine Receptor: Primary Screen for Antagonists). Settings: HEK293 TREx D2 cells, calcium flux, dopamine EC80; at 10 µM; stronger effect = higher value.
How it was run: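 Cells plated overnight at 30 C with tetracycline; no-wash calcium dye, 30–90 min RT; 10 s baseline; compound pinned; 180 s read; EC80 dopamine added; another 180 s read.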
Further: 0% is about no effect.

UniProt P14416, sequence (P14416 whole entry, looked up): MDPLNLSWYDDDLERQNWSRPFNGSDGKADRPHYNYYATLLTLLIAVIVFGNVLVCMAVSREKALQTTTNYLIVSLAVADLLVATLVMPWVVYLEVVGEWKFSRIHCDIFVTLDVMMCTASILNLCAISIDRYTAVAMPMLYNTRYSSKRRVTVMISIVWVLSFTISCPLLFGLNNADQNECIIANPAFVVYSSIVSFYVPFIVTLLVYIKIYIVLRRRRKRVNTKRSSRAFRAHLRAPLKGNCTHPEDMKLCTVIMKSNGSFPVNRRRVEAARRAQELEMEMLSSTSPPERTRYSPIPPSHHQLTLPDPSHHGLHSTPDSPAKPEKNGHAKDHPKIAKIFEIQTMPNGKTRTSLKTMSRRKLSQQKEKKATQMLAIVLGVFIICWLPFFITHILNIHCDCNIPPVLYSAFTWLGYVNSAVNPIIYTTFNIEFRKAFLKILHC

Point of comparison: `CCN(C(=O)NCc1noc2ccccc12)c1cc(C)ccc1C`, inhibition 3.58%. Against it:
- CCc1ccc(CNC(=O)CSCc2cnn(-c3ccccc3)c2-n2cccc2)cc1 — higher, 4.09%
- COc1ccc(C2CC(=O)N3CN(C4CCCCC4)CSC3=C2C#N)cc1 (stereo not given) — higher, 21.6%
- Cc1ccc(OCC(=O)Nc2ccc3nc(SCC(=O)N4CCCC4)sc3c2)cc1C — lower, -4.01%
- COc1ccc(NC(=O)CCCS(=O)(=O)c2nc(-c3ccc(OC)c(OC)c3)cc(C(F)(F)F)n2)cc1OC — higher, 11.3%
- CCC1CN(C(=O)NCc2ccc(F)cc2)c2ccccc2O1 (stereo not given) — higher, 14.4%
- Cc1ccc(NC(=O)c2ccco2)c(OCc2cc(=O)n3cc(C)sc3n2)c1 — higher, 7.46%
- CN(C)c1ccc(CN(CC2CCCO2)C(=O)COc2ccc(Cl)cc2)cc1 (stereo not given) — lower, 0.501%
- Cc1nc(N2CCCC2)ncc1C(=O)Nc1ccccc1 — lower, -5.09%
- CC(C)CC(=O)Nc1ccc(C(=O)OCc2cc(=O)n3nc(C4CCCCC4)sc3n2)cc1 — lower, 0.943%
- COc1ccccc1NC(=O)CSc1ncc2c(n1)-c1cc(Cl)ccc1N(C)S2(=O)=O — lower, -5.81%
- COc1cccc(CN2C(=O)c3ccccc3C2C(=O)NCCc2ccc(OC)c(OC)c2)c1 (stereo not given) — higher, 7.18%
- CC(=O)N1CCCc2cc(S(=O)(=O)N3CCCC(C(=O)NCc4ccc(Cl)cc4)C3)ccc21 (stereo not given) — lower, -1.03%
- Cc1cc(O)c(C(c2cccc(Cl)c2)N2CCN(c3ccccc3)CC2)c(=O)n1Cc1ccco1 (stereo not given) — lower, -6.54%
- CCCn1c(=O)c2sccc2n2c(CCCC(=O)NCCOC)nnc12 — lower, 0.054%
- CN(C)c1ccc(CNc2nc(-c3ccco3)nn2C(=O)c2cccc([N+](=O)[O-])c2)cc1 — lower, -19.6%
- CCOc1ccc(-n2c(SCc3nc(-c4ccccc4C)no3)nnc2-c2ccccc2)cc1 — higher, 3.66%
- Cc1ccc(S(=O)(=O)c2nnn3c2nc(Nc2ccc(C(C)C)cc2)c2sccc23)cc1C — higher, 14.6%
- CC(C)Cc1nn2c(=O)cc(COC(=O)c3ccccc3NC(=O)c3ccccc3)nc2s1 — higher, 14.5%
- COCCCn1c(=N)c(C(=O)NC2CCCC2)cc2c(=O)n3ccccc3nc21 — higher, 16%
- Cc1ccc(CCNC(=O)CCSCc2ccc(Cl)cc2)cc1 — lower, -3.11%
- Cc1ccc(-c2nc3c4cnn(-c5cc(Cl)ccc5Cl)c4ncn3n2)cc1 — lower, 0.81%
- Cc1nc2nc(SCC(=O)NC(C)c3ccccc3)nn2c(C)c1Cc1c(F)cccc1Cl (stereo not given) — higher, 8.76%
- COC(=O)c1ccc(NC(=O)CC2C(=O)N(c3cccc(OC)c3)C(=O)N2Cc2cccc(OC)c2)cc1 (stereo not given) — higher, 8.79%
- CCOc1ccc(CN2C(=O)c3ccccc3Sc3ccc(C(=O)NCc4ccc(C)cc4)cc32)cc1 — lower, -27.5%
- O=C(CSc1oc(-c2ccco2)nc1S(=O)(=O)c1ccc(Cl)cc1)c1ccccc1 — higher, 11.1%
- COc1cccc(CSc2nc3n(n2)C(c2ccccc2C)C(C(=O)Nc2ccccc2OC)=C(C)N3)c1 (stereo not given) — lower, 2.2%
- CCCCC12CN3CC(C)(CN(C1)C3c1c(C)[nH]c(=O)[nH]c1=O)C2=O (stereo not given) — higher, 12.2%
- Cc1cccc(CS(=O)(=O)Cc2ccc(C(=O)NCc3ccc(Cl)cc3)o2)c1 — lower, -16.9%
- COc1ccc(-c2cccc(NS(=O)(=O)c3cc(C)c(Cl)cc3C)c2)nn1 — lower, -5.97%
- CCN(CCCNC(=O)c1nn(-c2ccc(OC)cc2)c(=O)c2c1c1ccccc1n2C)c1cccc(C)c1 — lower, 2.88%
- Cc1cccc(Cn2c(C)c(C)c3cc(C(=O)NCc4ccc(C)o4)ccc32)c1 — higher, 12.3%
- Cc1cc(NC(=O)CN(C)S(=O)(=O)c2ccc3c(c2)CCC(=O)N3)ccc1Br — higher, 24.1%
- CCOc1ccc(NC(=O)CN2C(=O)C(c3ccccc3)=NC23CCCCCC3)cc1 — lower, -2%
- CCOc1ccc(CCNC(=O)c2cc3c(-c4cccc(OC)c4)nn(C)c3s2)cc1OCC — lower, -8.14%
- CCC(C(=O)NCCc1ccc(Cl)cc1)n1nc(C)c2c(C)n(-c3ccccc3)nc2c1=O (stereo not given) — lower, -7.35%
- Cc1cccc(C(CC(=O)NCC2(c3ccccc3)CCCC2)c2ccccc2)c1O (stereo not given) — higher, 6.45%
- CCCCCOc1ccc(C(=O)N(Cc2ccccc2)C2CCS(=O)(=O)C2)cc1 (stereo not given) — lower, -2.08%
- CCOC(=O)c1nc(Nc2cccc(C)c2)c2ccccc2n1 — higher, 7.72%
- Cc1ccc2nc(/C(C#N)=C/c3ccc(-c4cccc(Cl)c4)o3)[nH]c2c1 — lower, -1.66%
- CCOc1ccc(CNC(=O)CCn2cccn2)cc1OC — higher, 21.8%
- Cc1cccc(C(=O)Nc2ccc(N3CCC(CCN4CCOCC4)CC3)c(C(=O)O)c2)c1 — lower, -18.1%
- O=C(Nc1ccc(S(=O)(=O)N2CCC(c3nc4ccccc4s3)CC2)cc1)c1ccccc1F — higher, 27.1%
- COc1cccc(NC(=O)Cn2c(=O)n(CCCC(=O)NCc3ccc4c(c3)OCO4)c(=O)c3ccccc32)c1 — higher, 22%
- Cc1ccc(CNC(=O)c2c(-c3ccccc3F)noc2C)o1 — higher, 9.06%
- COC(=O)c1c(NC(=O)c2ccc(S(=O)(=O)N3CCCCC3C)cc2)sc2c1CCN(C(C)C)C2 (stereo not given) — lower, -14.5%
- CCOC(=O)c1ccccc1NC(=O)N(Cc1ccc(C)cc1)Cc1cccn1-c1nnc(N2CCCC2=O)s1 — lower, -6.53%
- COc1ccc(-c2noc(CSc3nnc(-c4ccncc4)n3-c3ccccc3)n2)cc1 — lower, -0.453%
- Cc1ccccc1-c1noc(CSc2nnc(Cc3ccccc3)n2-c2ccc(F)cc2)n1 — lower, -4.71%
- CCC(C)n1c(=N)c(S(=O)(=O)c2ccc(C)cc2)cc2c(=O)n3cc(C)ccc3nc21 (stereo not given) — lower, -13.9%
- COCCCNC(=O)c1ccc(NC(=O)N2CCCCc3ccccc32)cc1 — lower, -1.29%
- COc1ccc(-c2nc(CCNC(=O)c3cc(OC)c(OC)c(OC)c3)cs2)cc1 — lower, -6.22%
- CCCN1CCN(CC2=C(C(=O)OCC)C(c3ccc(Cl)cc3)NC(=O)N2)CC1 (stereo not given) — lower, 3.04%
- COc1ccc(Cl)cc1NC(=O)CCCn1c(=O)c2cccn2c2cccnc21 — lower, -8.01%
- COc1ccc(CNC(=O)Cc2c(C)c3c(cc(C)c4c(C)coc43)oc2=O)cc1 — lower, -5.78%
- COc1ccc(-c2c(C)nn3c(N4CCC(C(=O)NCCC(C)C)CC4)cc(C)nc23)cc1OC — lower, -4.62%
- Cc1ccc(-n2ncc3c(NNC(=O)c4ccccc4C)ncnc32)cc1 — lower, -9.54%
- CC(C)c1ccc(C2c3c(-c4ccccc4O)n[nH]c3C(=O)N2CCc2ccccc2)cc1 (stereo not given) — lower, 2.82%
- CC(C)CCn1c(SCc2ccc(F)cc2Cl)nc2ccsc2c1=O — lower, -3.81%
- Cc1ccc(Cn2c(=O)c3c(nc4n3CCN4c3cc(C)cc(C)c3)n(C)c2=O)cc1 — higher, 3.92%
- CCN(CC)CCn1c(=N)n(CC(O)COc2ccccc2C)c2ccccc21 (stereo not given) — lower, 1.78%
- CCCCOc1ccc(S(=O)(=O)Nc2cccc(-c3ccc(N4CCOCC4)nn3)c2)cc1 — higher, 9.44%
- COc1ccccc1-c1c(C)nn2c(N3CCN(c4ccc(Cl)cc4)CC3)cc(C)nc12 — lower, -1.56%
- CCOC(=O)c1ccc(Nc2nc(C)cc(C)n2)cc1 — lower, 0.257%
- CC(Sc1nc(-c2ccccc2)c(C#N)c(=O)[nH]1)C(=O)Nc1ccc(F)cc1 (stereo not given) — lower, -25.1%
- COc1ccc(N(CC(=O)N2CCN(c3cc(C)ccc3C)CC2)S(=O)(=O)c2c(C)noc2C)cc1 — lower, -1.98%
- Cc1c(C(=O)NCCN(C)C)oc2c1-c1nn(Cc3ccccc3Cl)cc1CC2 — lower, -1.61%
- Cc1cccc(C2NC(=O)c3c(sc4c3CCN(C)C4)N2)c1O (stereo not given) — lower, 2.15%
- CCOC(=O)c1ccc(NC2=CC(c3ccc(Br)cc3)N(c3ccc(C(=O)OCC)cc3)C2=O)cc1 (stereo not given) — higher, 7.13%
- COC(=O)c1cc(Cl)c(NC(=O)/C=C/c2ccc(Cl)cc2Cl)cc1OC — lower, -0.523%
- COc1cccc(Cc2nc3ccccc3nc2SCC(=O)N2CCc3ccccc32)c1 — higher, 5.55%
- CCOC(=O)c1ccc(NC(=O)C(=O)NCc2ccco2)cc1 — higher, 13.7%
- Cc1cccc(Oc2nc3c(C)cccn3c(=O)c2/C=C(\C#N)c2nc3ccccc3s2)c1 — lower, -5.7%
- COc1ccc(Br)c2c1-c1nc(NC(=O)c3ccccc3SC)sc1C2 — lower, -19.7%
- O=S(=O)(c1ccccc1)c1nc(-c2cccc(Cl)c2)oc1NCc1ccccc1 — lower, -2.76%
- CCOc1ccc(N2CC(c3nc4ccccc4n3CCCOc3ccc(OC)cc3)CC2=O)cc1 (stereo not given) — lower, -2.77%
- COCCNC(=O)CSc1nnc(-c2ccc(OC)c(OC)c2)c(-c2ccc(OC)c(OC)c2)n1 — lower, 1.54%

For `Cc1ccc(N2CCN(CC(O)COc3ccccc3)CC2)cc1` (stereo not given), the inhibition was active: 38.9%.
In the case of `Cc1cc(C)n(CCn2nc(C)cc2C)n1`, the inhibition is reported as active: 40.7%.
`O=C(c1cccs1)N1CCN(C/C=C/c2ccccc2)CC1` was tested, and the inhibition was active: 69.4%.
`COc1cc(C(C)=O)ccc1OCC(O)CN1CCN(c2ccc(F)cc2)CC1` (stereo not given) was tested, and the inhibition was active: 40.1%.
With `Cc1ccc([N+](=O)[O-])c(NC(=O)COC(=O)C2CC3CCCC(C2)C3=O)c1C` (stereo not given) the inhibition was active: 36.4%.
For `CCN(c1ccccc1C(=O)O)S(=O)(=O)c1cccc2nsnc12`, the inhibition was active: 30.6%.
In the case of `CC(=O)NC(CC(=O)OCC(=O)N1c2ccccc2NC(=O)C1(C)C)c1ccccc1` (stereo not given), the inhibition is reported as active: 52.4%.
In the case of `Nc1cnccc1C(=O)O`, the inhibition is reported as active: 42.6%.
With `Fc1ccccc1OCCCN1CCOCC1` the inhibition was active: 31.1%.
With `Cn1nc(C(F)(F)F)c2cc(C(=O)Nc3ccc(Cl)cc3)sc21` the inhibition was active: 64.4%.
In the case of `Cc1ccc(-c2nn(-c3ccccc3)cc2C(=O)NCCCN2CCOCC2)cc1`, the inhibition is reported as active: 31%.
In the case of `Cc1ccc(S(=O)(=O)CC(=O)c2ccc(C)c([N+](=O)[O-])c2)cc1`, the inhibition is reported as active: 78.8%.
In the case of `CN1CCN(NC(=O)CSc2ccc(Cl)cc2Cl)CC1`, the inhibition is reported as active: 45.8%.
For `Cn1cc(CNCCCn2ncc3ccccc32)c(-c2ccccc2F)n1`, the inhibition was active: 37.2%.
With `COc1ccccc1/C=C/CN1CCC(Oc2ccc(C(=O)N3CCCC3)cc2)CC1` the inhibition was active: 47.1%.
`CCCC[n+]1ccn(-c2nc3c([N+](=O)[O-])cccc3n2C)c1` was tested, and the inhibition was active: 34.1%.
With `O=C(NC1CC2CCC(C1)N2Cc1ccccc1)c1ccccc1Br` (stereo not given) the inhibition was active: 67.5%.
`Nc1nc(CN2CCN(Cc3ccccc3)CC2)nc(N2CCCc3ccccc32)n1` was tested, and the inhibition was active: 63.4%.
